PubChem BioAssay AID1347120 (National Center for Advancing Translational Sciences (NCATS), 2019)
Hit rate of the full screen: of about 390,000 compounds, about 930 (0.24%) were called active. Inconclusive results, whose numbers are uncertain, are shown with a selection of clear calls. Calls come from the whole dose curve; as a rule, active = well fitted activation curve with a large enough effect; inconclusive = small, poorly fitted or top-dose-only effect; inactive = no such curve, though single readings can be large or run the other way. Where the call is inconclusive, the potency comes from a doubtful curve fit.
Potency is the fitted concentration of half-maximal effect; tags give direction and shape of the fitted curve.

Assay: qHTS for Suppressors of FUS Proteinopathy: Primary screen using FUS-linked yeast assay; note: nearly all actives have a fitted effect of over 55% in size;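 for growth rescue (activation): plate controls were DMSO vehicle for no effect and reference control for full effect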
Conditions: S. cerevisiae FUS-expressing, OD600, 24 h; Potency: growth rescue; growth rescue (activation): at 76.6 µM (top of the series)
Method in brief: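 Quantitative HTS measuring growth restoration of FUS-toxic yeast. Galactose-induced cells (OD 0.005) were exposed 24hr at 30C to compounds at several concentrations, then absorbance at 600 nm was recorded.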
In the case of CC(=O)Oc1ccccc1C1=NN(C(=O)/C=C/c2ccccc2)C(c2ccccc2)C1 (stereo unspecified), the Potency is reported as inconclusive: 11.2 µM [activator, single point].
For CN1CCc2c(sc3nc(SCC(N)=O)n(-c4ccccc4)c(=O)c23)C1, the Potency was inconclusive: 50.1 µM [activator, single point].
For C=C(C)COc1ccc(-c2[nH]ncc2-c2ccc(OC)c(OC)c2)c(O)c1, the Potency was inconclusive: 28.2 µM [activator, single point].
In the case of Cc1cc2ccccc2n1CCNC(=O)c1cccs1, the “growth rescue (activation)” value is reported as inactive: 39.1%.
With CC1(C(=O)Nc2ccc3[nH]ncc3c2)CCN1C(=O)Cc1ccc(-c2ccccc2)cc1 (stereo unspecified) the Potency was inconclusive: 50.1 µM [activator, single point].
For Cc1ccccc1CN1C(=O)C(O)(c2c[nH]c3ccccc23)c2cc(Cl)ccc21 (stereo unspecified), the Potency was inconclusive: 31.6 µM [activator, single point].
In the case of CCn1nc(C(=O)Nc2ccc(S(=O)(=O)Nc3nccs3)cc2)c2ccccc2c1=O, the Potency is reported as active: 25.1 µM.
For CCCCN1C(C(=O)c2ccccc2)=C(OC(=O)CC)c2ccccc2S1(=O)=O, the “growth rescue (activation)” value was inactive: 21.7%.
With CCOCCn1c(SCCc2ccccc2)nc2c1c(=O)[nH]c(=O)n2C the “growth rescue (activation)” value was inactive: -5.69%.
In the case of COc1ccc(S(=O)(=O)N2CCCCCC2)cc1C(=O)N(C)CCOc1ccc(Cl)cc1, the Potency is reported as inconclusive: 50.1 µM [activator, single point].
In the case of Cc1onc(-c2c(Cl)cccc2Cl)c1C(=O)N1CCc2ccccc21, the Potency is reported as inconclusive: 50.1 µM [activator, single point].
For Cc1ccc(NP(=O)(c2ccc(N(C)C)cc2NC(=O)c2cccs2)N2CCOCC2)cc1 (stereo unspecified), the “growth rescue (activation)” value was inactive: 5.71%.
For O=C(NC1(C(F)(F)F)N=C(c2ccccc2)N(Cc2ccccc2)C1=O)c1ccc(F)cc1 (stereo unspecified), the “growth rescue (activation)” value was inactive: -3.53%.
In the case of CCOC(=O)C1=C(C)N(C[C@@H]2CC[C@@H](Cc3ccc4cc(OC)ccc4c3)O2)C(=O)NC1c1ccccc1 (stereo partly specified), the Potency is reported as inconclusive: 14.1 µM [activator, partial curve, poor fit].
In the case of COc1cc(/C=C/CO)cc(OC)c1OC/C=C(\C)CCC=C(C)C, the Potency is reported as inconclusive: 44.7 µM [activator, partial curve, poor fit].
With O=C(OC12CCCN(C1)/C(=C/c1cccc(Cl)c1)C2)C1CCCC1 (stereo unspecified) the “growth rescue (activation)” value was inactive: 2.09%.
For O=C(O)c1cc(O)ccc1N=Nc1ccccc1, the “growth rescue (activation)” value was inactive: -1.98%.
With O=C(CN1CCN(S(=O)(=O)c2ccccc2F)CC1)Nc1ccccc1C(=O)c1ccccc1 the Potency was inconclusive: 22.4 µM [activator, single point].
For COC(=O)c1ccc(Cn2c(C)c(C(=O)Nc3cccc(Oc4ccccc4)c3)sc2=O)o1, the Potency was inconclusive: 31.6 µM [activator, single point].
With C[C@@H](NC(=O)C[C@H]1CC[C@H]2[C@@H](COc3ccc(NC(=O)Nc4ccccc4)cc3C(=O)N2C)O1)c1ccccc1 the Potency was inconclusive: 28.2 µM [activator, single point].
For O=C(C[C@H]1C[C@H](C(=O)N2CCCCC2)[C@@]2(CCc3ccccc3)c3[nH]c4cc(-c5ccco5)ccc4c3CCN2C1=O)NCCN1CCOCC1, the Potency was inconclusive: 39.8 µM [activator, single point].
With CCN(C(=O)c1cc2c(s1)-c1ccccc1OC2)c1cc(OC)ccc1OC the Potency was inconclusive: 28.2 µM [activator, single point].
For COc1ccc(OC)c(C2CC(=O)N3CN(c4ccccc4)CSC3=C2C#N)c1 (stereo unspecified), the Potency was inconclusive: 28.2 µM [activator, single point].
In the case of Cc1ccc(S(=O)(=O)c2nnn3c2nc(N(C)Cc2ccccc2)c2cc(Cl)ccc23)cc1C, the “growth rescue (activation)” value is reported as inactive: 3.23%.
With CN(C)C(=O)c1ccc(NC(=O)COc2cccc3c2OC(C)(C)C3)cc1 the “growth rescue (activation)” value was inactive: 11.1%.
In the case of O=C(NCCCc1ccccc1)[C@H](Cc1c[nH]c2ccccc12)NC1(C(=O)NCCc2c[nH]c3ccccc23)CCOCC1, the Potency is reported as active: 22.4 µM.
With Cc1ccc(C)c(N(CC(=O)Nc2ccccc2C(=O)NCc2ccco2)S(=O)(=O)c2ccccc2)c1 the Potency was inconclusive: 15.8 µM [activator, partial curve].
In the case of CC(C)(C)NC(=S)Nc1ccc(Nc2ccccc2)cc1, the “growth rescue (activation)” value is reported as inactive: 41.1%.
In the case of CCc1ccc(C(CNC(=O)c2ccc3c(=O)n(-c4ccccc4F)c(=S)[nH]c3c2)N(C)C)cc1 (stereo unspecified), the Potency is reported as inconclusive: 31.6 µM [activator, single point].
With Cc1noc(C)c1COc1ccccc1C(=O)N1CCN(S(=O)(=O)c2ccc(C(C)C)cc2)CC1 the Potency was inconclusive: 15.8 µM [activator, partial curve].
In the case of CCN1C(=O)c2ccccc2Sc2ccc(NC(=O)Cc3ccc(OC)c(OC)c3)cc21, the Potency is reported as inconclusive: 35.5 µM [activator, single point].
In the case of CCOC(=O)c1c(C)c(C(=O)NCCCOC)c(C)n1C, the growth rescue (activation) is reported as inconclusive: 49.2% [activator].
For COc1cccc(NC(=O)c2csc3c2CCCCC3)c1, the “growth rescue (activation)” value was inactive: 0.497%.
With CC(C)Cn1nc(NC(=O)C(C)(C)C)c2cc3ccccc3nc21 the growth rescue (activation) was inconclusive: 92.4% [activator].
For Cc1ccc(NC(=O)C2=C(c3ccccc3)S(=O)(=O)CCS2(=O)=O)cc1, the “growth rescue (activation)” value was inactive: 5.61%.
With O=C(CS(=O)(=O)c1nc(-c2ccc(Cl)cc2)cn1-c1ccccc1)Nc1cccc(Cl)c1 the Potency was inconclusive: 39.8 µM [activator, single point].
With CC(C)(C)OC[C@H](NC(=O)c1[nH]cnc1C(=O)Nc1ccccc1F)C(=O)OC(C)(C)C the Potency was inconclusive: 20 µM [activator, single point].
For O=C(Cn1c2ncccc2c(=O)n1-c1ccccc1)NCc1ccccc1, the “growth rescue (activation)” value was inactive: 18.3%.
In the case of CCOC(=O)c1cc(CC)sc1NC(=O)CN1CCN(C(=O)c2ccco2)CC1, the Potency is reported as inconclusive: 31.6 µM [activator, single point].
For Cc1ccc(NC(=O)c2ccc(F)c(S(=O)(=O)NCCc3ccccc3)c2)cc1F, the Potency was inconclusive: 12.6 µM [activator, single point].
With CC(=O)Oc1ccccc1N(C(C)=O)S(=O)(=O)c1ccc2ccccc2c1 the “growth rescue (activation)” value was inactive: 11.8%.
In the case of Oc1ccc(CNc2ccccc2O)cc1, the Potency is reported as inconclusive: 35.5 µM [activator, partial curve, poor fit].
For Nc1c(C(=O)N/N=C/c2ccc(Cl)cc2)cnn1-c1ccccc1, the Potency was inconclusive: 50.1 µM [activator, single point].
For O=C(Nc1nnc(C2=COCCO2)o1)c1ccc(S(=O)(=O)N2CCCCC2)cc1, the Potency was inconclusive: 25.1 µM [activator, single point].
In the case of Cc1ccccc1CS(=O)(=O)c1ncc(Cl)c(C(=O)Nc2nnc(C(C)C)s2)n1, the “growth rescue (activation)” value is reported as inactive: 36.8%.
For Cc1nc2ccc(S(=O)(=O)NCC(=O)NCc3ccccc3C)cc2s1, the “growth rescue (activation)” value was inactive: 0.736%.
In the case of c1ccc(CSc2ccc(-c3cccnc3)nn2)cc1, the Potency is reported as inconclusive: 39.8 µM [activator, partial curve, poor fit].
With O=C(Nc1ccccc1N1CCCCC1)C1CCN(S(=O)(=O)c2ccccc2C(F)(F)F)CC1 the “growth rescue (activation)” value was inactive: 44.4%.
For O=C(c1ccc(Cn2c(=S)[nH]c3ccc(N4CCOCC4)cc3c2=O)cc1)N1CCN(c2ccc(F)cc2)CC1, the Potency was inconclusive: 17.8 µM [activator, single point].
With Cc1cc(C(F)F)n2nc(C(=O)Nc3sc4c(c3C(N)=O)CCC4)nc2n1 the Potency was inconclusive: 35.5 µM [activator, single point].
With CCS(=O)(=O)N1Cc2ccccc2CC1C(=O)N1CCN(c2cccc(C)c2C)CC1 (stereo unspecified) the Potency was inconclusive: 44.7 µM [activator, single point].
For Cc1ccccc1CNC(=O)Nc1ccc(Cl)cc1, the “growth rescue (activation)” value was inactive: -31.3%.
For O=C(CN1CCCSc2ccccc21)N1CCN(S(=O)(=O)c2cccc(F)c2)CC1, the Potency was inconclusive: 35.5 µM [activator, single point].
For CCN(CC)S(=O)(=O)c1ccc2c(c1)N(CC(=O)Nc1c(C)cc(C)cc1C)C(=O)CS2, the “growth rescue (activation)” value was inactive: 12.1%.
For C[C@H](CO)N1C[C@H](C)[C@@H](CN(C)S(=O)(=O)c2ccccc2)Oc2c(NC(=O)Nc3ccc(C(F)(F)F)cc3)cccc2C1=O, the Potency was inconclusive: 28.2 µM [activator, single point].
With COc1ccc(OCC(O)COc2ccc(C(=O)O)cc2)cc1 (stereo unspecified) the “growth rescue (activation)” value was inactive: 8.22%.
For CC(C)c1ccc(-c2noc(SCC(=O)N(C)c3ccc(F)cc3)n2)cc1, the Potency was inconclusive: 15.8 µM [activator, partial curve, poor fit].
In the case of Clc1ccc(-c2nn3cnnc3s2)c(Cl)c1, the “growth rescue (activation)” value is reported as inactive: 3.81%.
In the case of COc1ccccc1COc1ccc2c(C)c(CCC(=O)O)c(=O)oc2c1C, the Potency is reported as inconclusive: 11.2 µM [activator, single point].
With Cc1ccc(S(=O)(=O)N2C[C@@H]3[C@H]4CC[C@H](C4)[C@@H]3[C@@H](C)[C@@H]2c2cn(Cc3ccccc3)c3ncccc23)cc1 the Potency was inconclusive: 25.1 µM [activator, single point].
With Cc1ccc(-n2c(SCc3ccccc3C)nc3[nH]ncc3c2=O)cc1C the Potency was inconclusive: 50.1 µM [activator, single point].
In the case of COc1cc(-c2nnc(SCC(=O)NN=Cc3c[nH]c4ccccc34)n2-c2ccccc2)cc(OC)c1OC, the “growth rescue (activation)” value is reported as inactive: 43.4%.
For Cc1cc(C)c2nc(NNC(=O)c3ccc(S(=O)(=O)N4CCc5ccccc5C4)cc3)sc2c1, the Potency was inconclusive: 20 µM [activator, single point].
In the case of N#Cc1ccccc1CSc1nnc(-c2ccncc2)o1, the growth rescue (activation) is reported as inconclusive: -71.1% [activator].
In the case of CCc1cc(=O)oc2cc(OCC(=O)OC)c(Cl)cc12, the “growth rescue (activation)” value is reported as inactive: 14.6%.
In the case of CN(C)S(=O)(=O)c1ccc(NC(=O)Cc2ccc(S(=O)(=O)N3CCOCC3)s2)cc1, the Potency is reported as inconclusive: 11.2 µM [activator, partial curve, poor fit].
